# Experimental data: a collection of fitness landscapes (doi:10.1016/j.celrep.2020.107928)
# Whole data set: some 81,000 sequences, median “one-hybrid fitness for binding parS DNA” near -0.17, cut for the highest 2% near 0.51. This is one part of the list.
# B1: Caulobacter ParB omega fusion; a variant is named by its letters at X, in order, B8GW30 (parent)
# chain: MESVVVGEPGMSEGRRGLGRGLSALLGEVDAAPAQAPGEQLGGSREAPIEILQRNPDQPRRTFREEDLEDLSNSIREKGVLQPILVRPSPDTAGEYQIVAGERAWRAAQRAGLKTVPIMVRELDDLAVLEIGIIENVQRADLNVLEEALSYKVLMEKFERTQENIAQTIGKSXSHVANXMRLLXLPDEVQSYLVSGELTAXHARAIAAAADPVALAKQIIEGGLSVRETEALARKAPNLSAGKSKGGRPPRVKDTDTQALESDLSSVLGLDVSIDHRGSTGTLTITYATLEQLDDLCNRLTRGI
# Variants of: B1
# Test: one-hybrid fitness for binding parS DNA (scaled: cognate 1, non-cognate 0); higher = stronger binding
# Conditions: with parS DNA site
# How it was run: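 The reporter was HIS3, with the binding site 19 bp from the promoter, in E. coli USO used for bacterial one-hybrid selection of Caulobacter ParB libraries with four specificity codons randomised. Growth was on M9 lacking histidine, with 0.1 mM IPTG and 5 mM 3-AT, for 48 hours at 37°C. Illumina sequencing covered plasmids before and after selection; three replicate libraries were pooled and variants with under 10 reads dropped. A fitness score is the log change in variant-to-wild-type read ratio, rescaled to the cognate and non-cognate references.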
row,Variant,one-hybrid fitness for binding parS DNA
1,QREH,≤ 0.2
2,HIRR,≤ 0.2
3,QISG,≤ 0.2
4,HKSE,≤ 0.2
5,TNLY,≤ 0.2
6,SPYY,≤ 0.2
7,KPGT,≤ 0.2
8,FMVT,≤ 0.2
9,CMID,≤ 0.2
10,TAHK,≤ 0.2
11,FEEV,≤ 0.2
12,GRAF,≤ 0.2
13,KKRA,≤ 0.2
14,PHAE,≤ 0.2
15,SKDG,≤ 0.2
16,LDTD,≤ 0.2
17,SETM,≤ 0.2
18,FDTG,≤ 0.2
19,AFSM,≤ 0.2
20,STPM,≤ 0.2
21,VREF,≤ 0.2
22,PWTI,≤ 0.2
23,IQVN,≤ 0.2
24,NFYG,≤ 0.2
25,RHKR,≤ 0.2

row,Variant,one-hybrid fitness for binding parS DNA
1,KYPV,≤ 0.2
2,ESTC,≤ 0.2
3,IWPR,≤ 0.2
4,SRME,≤ 0.2
5,HVNS,≤ 0.2
6,TFDL,≤ 0.2
7,RQDE,≤ 0.2
8,TEGG,≤ 0.2
9,VTYG,≤ 0.2
10,RIRT,0.848
11,PVLQ,≤ 0.2
12,HGIL,≤ 0.2
13,ACAC,≤ 0.2
14,WRNN,≤ 0.2
15,CTHN,≤ 0.2
16,KPKC,≤ 0.2
17,IPGL,≤ 0.2
18,FLRI,≤ 0.2
19,HTPR,≤ 0.2
20,RQIW,≤ 0.2
21,LCTR,≤ 0.2
22,PCAC,≤ 0.2
23,LIRR,≤ 0.2
24,KGWS,≤ 0.2
25,LMKI,≤ 0.2

row,Variant,one-hybrid fitness for binding parS DNA
1,CYHW,≤ 0.2
2,RQLM,0.301
3,LKNY,≤ 0.2
4,PEPS,≤ 0.2
5,AILM,≤ 0.2
6,QSQR,≤ 0.2
7,CANT,≤ 0.2
8,PKTQ,≤ 0.2
9,QQRQ,≤ 0.2
10,SEAF,≤ 0.2
11,SSDL,≤ 0.2
12,RNVR,≤ 0.2
13,DIKT,≤ 0.2
14,FSWS,≤ 0.2
15,RRMI,≤ 0.2
16,TSRC,≤ 0.2
17,RQLP,≤ 0.2
18,LQTY,≤ 0.2
19,PNHT,≤ 0.2
20,WDRL,≤ 0.2
21,GVET,≤ 0.2
22,CMIS,≤ 0.2
23,VTRV,≤ 0.2
24,HDLR,≤ 0.2
25,GPAV,≤ 0.2

row,Variant,one-hybrid fitness for binding parS DNA
1,PYPK,≤ 0.2
2,RMMC,0.992
3,YGSV,≤ 0.2
4,PNWS,≤ 0.2
5,LGNV,≤ 0.2
6,MNLL,≤ 0.2
7,PTCF,≤ 0.2
8,STTW,≤ 0.2
9,FNAS,≤ 0.2
10,VRFG,≤ 0.2
11,NGGR,≤ 0.2
12,PEAL,≤ 0.2
13,ATDG,≤ 0.2
14,CTYR,≤ 0.2
15,QNHP,≤ 0.2
16,IRYM,≤ 0.2
17,QDSW,≤ 0.2
18,WVEG,≤ 0.2
19,PTEL,≤ 0.2
20,ELTK,≤ 0.2
21,ASPD,≤ 0.2
22,VALM,≤ 0.2
